Reference: the supplement of paper PMC11369174, “Proteome-scale characterisation of motif-based interactome rewiring by disease mutations” (Molecular Systems Biology, 2024)
This is one part of the list. This is a noisy data set.

How the values were obtained:
Experiment in all cases: mutation enrichment score (mutant vs wild-type peptide binding to bait); baits are purified protein domains named by gene / domain / UniProt id / residues; peptides come from disordered regions of human proteins; higher = mutation enhances binding relative to wild type
[1] = molecular target: T1, AP2_Mu__Q96CW1_160_435; conditions: number of wild-type / mutant comparisons summed (bounds the score): 6, wild-type window: …
T1 chain: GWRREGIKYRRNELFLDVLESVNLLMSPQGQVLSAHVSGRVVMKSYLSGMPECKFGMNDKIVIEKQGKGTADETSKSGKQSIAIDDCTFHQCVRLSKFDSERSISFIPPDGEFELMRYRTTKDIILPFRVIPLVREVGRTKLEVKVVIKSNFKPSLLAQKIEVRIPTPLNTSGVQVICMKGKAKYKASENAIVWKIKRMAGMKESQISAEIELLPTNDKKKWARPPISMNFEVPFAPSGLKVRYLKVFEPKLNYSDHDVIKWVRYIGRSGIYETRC

[2] = molecular target: T2, AP2B1_adaptin__P63010_700_937; conditions: wild-type window: …
T2 chain: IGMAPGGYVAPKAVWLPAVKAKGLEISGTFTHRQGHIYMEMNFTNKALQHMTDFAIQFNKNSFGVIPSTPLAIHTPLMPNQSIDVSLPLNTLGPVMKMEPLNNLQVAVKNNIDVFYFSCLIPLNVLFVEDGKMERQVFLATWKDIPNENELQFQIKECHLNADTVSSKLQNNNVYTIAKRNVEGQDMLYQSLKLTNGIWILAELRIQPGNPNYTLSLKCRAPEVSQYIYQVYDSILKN

[3] = molecular target: T3, EPS15_EH__P42566_121_215; conditions: number of wild-type / mutant comparisons summed (bounds the score): 6; paper call: no_effect; wild-type window: …
T3 chain: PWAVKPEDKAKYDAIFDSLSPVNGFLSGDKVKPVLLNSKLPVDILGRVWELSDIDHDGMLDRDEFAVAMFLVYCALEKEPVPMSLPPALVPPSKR

[4] = molecular target: T4, AP1G2_GAE__O75843_665_785; conditions: wild-type window: …
T4 chain: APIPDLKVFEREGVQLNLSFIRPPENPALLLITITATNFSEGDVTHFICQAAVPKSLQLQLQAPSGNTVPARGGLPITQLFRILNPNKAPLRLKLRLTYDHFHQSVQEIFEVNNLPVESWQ

[5] = molecular target: T5, CLTC_Clathrin-propeller__Q00610_1_364; conditions: number of wild-type / mutant comparisons summed (bounds the score): 6; paper call: no_effect; wild-type window: …
T5 chain: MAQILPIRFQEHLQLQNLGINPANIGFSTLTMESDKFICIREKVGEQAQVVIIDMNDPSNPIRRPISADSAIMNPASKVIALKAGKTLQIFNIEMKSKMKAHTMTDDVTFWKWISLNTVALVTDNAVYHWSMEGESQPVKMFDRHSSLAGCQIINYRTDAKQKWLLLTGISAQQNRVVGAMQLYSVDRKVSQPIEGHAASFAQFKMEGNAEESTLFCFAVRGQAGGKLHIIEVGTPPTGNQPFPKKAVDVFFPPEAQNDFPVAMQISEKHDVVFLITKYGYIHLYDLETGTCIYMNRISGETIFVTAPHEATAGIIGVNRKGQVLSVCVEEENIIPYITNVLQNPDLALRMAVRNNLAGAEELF

[6] = molecular target: CREBBP_NCBD__Q92793_2062_2109; conditions: number of wild-type / mutant comparisons summed (bounds the score): 15; paper call: enhanced; wild-type window: …
[7] = molecular target: PTBP1_RRM_2_P26599_157_285; conditions: number of wild-type / mutant comparisons summed (bounds the score): 12; paper call: enhanced; wild-type window: …
[8] = molecular target: T6, EPHB2_Pkinase__P29323_604_898; conditions: paper call: no_effect, wild-type window: …
T6 chain: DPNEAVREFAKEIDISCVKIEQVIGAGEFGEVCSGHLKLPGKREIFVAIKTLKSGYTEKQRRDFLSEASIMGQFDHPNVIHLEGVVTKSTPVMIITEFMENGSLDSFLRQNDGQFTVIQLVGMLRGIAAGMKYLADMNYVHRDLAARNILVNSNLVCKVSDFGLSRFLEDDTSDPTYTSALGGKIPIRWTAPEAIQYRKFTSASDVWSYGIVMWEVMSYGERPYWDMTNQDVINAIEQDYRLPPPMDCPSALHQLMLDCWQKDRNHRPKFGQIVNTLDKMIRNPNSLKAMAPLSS

[9] = molecular target: EZR_FERM_1_P15311_2_295; conditions: number of wild-type / mutant comparisons summed (bounds the score): 5; paper call: no_effect; wild-type window: …
EZR_FERM_1_P15311_2_295, sequence (chain, as listed by the source): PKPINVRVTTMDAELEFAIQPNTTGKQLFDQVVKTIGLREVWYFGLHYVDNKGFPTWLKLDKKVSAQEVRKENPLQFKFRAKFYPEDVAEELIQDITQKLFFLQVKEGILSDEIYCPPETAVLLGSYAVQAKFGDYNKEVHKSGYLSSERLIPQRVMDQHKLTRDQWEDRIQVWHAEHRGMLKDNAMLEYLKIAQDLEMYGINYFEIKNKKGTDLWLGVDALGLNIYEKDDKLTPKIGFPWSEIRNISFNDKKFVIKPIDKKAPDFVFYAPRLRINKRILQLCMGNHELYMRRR

[10] = molecular target: T7, PEX14_Pex14__O75381_16_84; conditions: number of wild-type / mutant comparisons summed (bounds the score): 6; paper call: no_effect; wild-type window: …
T7 chain: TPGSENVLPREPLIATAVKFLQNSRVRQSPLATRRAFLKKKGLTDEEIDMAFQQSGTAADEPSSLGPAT

[11] = molecular target: T8, CSK21_Pkinase__P68400_1_335; conditions: paper call: no_effect, wild-type window: …
T8 chain: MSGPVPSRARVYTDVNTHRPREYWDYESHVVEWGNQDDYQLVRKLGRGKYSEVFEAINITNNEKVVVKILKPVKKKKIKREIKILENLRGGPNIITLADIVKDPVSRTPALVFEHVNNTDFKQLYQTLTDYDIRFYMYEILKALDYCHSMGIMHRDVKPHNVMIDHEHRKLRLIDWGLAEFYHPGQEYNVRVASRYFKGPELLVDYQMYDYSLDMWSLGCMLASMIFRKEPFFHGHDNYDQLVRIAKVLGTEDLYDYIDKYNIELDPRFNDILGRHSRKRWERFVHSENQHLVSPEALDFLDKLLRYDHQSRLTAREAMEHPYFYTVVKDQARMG

[12] = molecular target: ALYREF_RRM__Q86V81_78_183; conditions: number of wild-type / mutant comparisons summed (bounds the score): 6; paper call: no_effect; wild-type window: …
[13] = molecular target: T9, GRAP2_SH3_2_O75791_274_329; conditions: number of wild-type / mutant comparisons summed (bounds the score): 6; paper call: no_effect; wild-type window: …
T9 chain: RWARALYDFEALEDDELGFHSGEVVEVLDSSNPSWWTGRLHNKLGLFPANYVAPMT

[14] = molecular target: Intersectin-1_SH3_1_Q15811_740_806; conditions: number of wild-type / mutant comparisons summed (bounds the score): 6; paper call: no_effect; wild-type window: …
[15] = molecular target: Intersectin-1_SH3_3_Q15811_1002_1060; conditions: number of wild-type / mutant comparisons summed (bounds the score): 6; paper call: no_effect; wild-type window: …
[16] = molecular target: Intersectin-1_SH3_5_Q15811_1155_1214; conditions: number of wild-type / mutant comparisons summed (bounds the score): 6; paper call: no_effect; wild-type window: …
[17] = molecular target: Src_SH3__P12931_87_144; conditions: number of wild-type / mutant comparisons summed (bounds the score): 6; paper call: no_effect; wild-type window: …
[18] = molecular target: KPNA4_Arm__O00629_68_487; conditions: number of wild-type / mutant comparisons summed (bounds the score): 18; paper call: no_effect; wild-type window: …
KPNA4_Arm__O00629_68_487, sequence (chain, as listed by the source): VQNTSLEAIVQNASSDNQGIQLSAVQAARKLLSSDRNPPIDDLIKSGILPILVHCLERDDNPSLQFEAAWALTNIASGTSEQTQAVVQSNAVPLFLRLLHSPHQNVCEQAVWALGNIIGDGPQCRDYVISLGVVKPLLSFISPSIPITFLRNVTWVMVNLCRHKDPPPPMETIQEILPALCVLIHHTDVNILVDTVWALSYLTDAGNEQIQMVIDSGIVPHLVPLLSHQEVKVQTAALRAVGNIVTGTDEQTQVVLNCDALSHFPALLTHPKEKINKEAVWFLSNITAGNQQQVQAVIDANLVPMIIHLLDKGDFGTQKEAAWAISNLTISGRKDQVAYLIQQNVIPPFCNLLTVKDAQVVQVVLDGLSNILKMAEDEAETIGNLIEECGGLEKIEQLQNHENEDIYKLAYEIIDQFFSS

[19] = number of wild-type / mutant comparisons summed (bounds the score): 6, paper call: no_effect
[20] = number of wild-type / mutant comparisons summed (bounds the score): 12, paper call: no_effect
[21] = number of wild-type / mutant comparisons summed (bounds the score): 6
[22] = number of wild-type / mutant comparisons summed (bounds the score): 12
[23] = number of wild-type / mutant comparisons summed (bounds the score): 6, paper call: enhanced
[24] = number of wild-type / mutant comparisons summed (bounds the score): 6, paper call: diminished

EYKILLDVKTRLEQEIATYRPLLEGEDAHLSSSQFSSGSQS [R417P R417P]
mutation enrichment score ([1]; paper call: no_effect): 5

GTGGKSPRLTQSSGFFGNLSIVTNLDDSNWAAAFSSQRSGL [M101I M101I]
mutation enrichment score [2, 19]: 0.77

ESDEVNEGELKEIKQDISSLCYELLEEKSQNTEDLAELIRE [R895C R895C]
mutation enrichment score ([1]; paper call: no_effect): -1

ESDEVNEGELKEIKQDISSLLYELLEEKSQNTEDLAELIRE [R895L R895L]
mutation enrichment score ([1]; paper call: no_effect): -1

KLALDMEIHAYRKLLEGEEETLRLSPSPTSQRSRGRASSHS [R386T R386T]
mutation enrichment score ([1]; paper call: no_effect): 3

LYTLWVTFQVLLYTSLPDFCLKFLPGYVGGIQEGAVTPAGV [H119L H119L]
mutation enrichment score [2, 19]: 3 | mutation enrichment score [3]: 2

GTNMTYGTSPSGLNMGELIAWMVRNMDNSLLQDSDLDPRGS [R289W R289W]
mutation enrichment score [4, 19]: 6 | mutation enrichment score [5]: 6 | mutation enrichment score [6]: 11

NRKTSNGDDSLFFSNFSLLGAPVLKDINFKIERGQLLAVAG [T438A T438A]
mutation enrichment score [2, 20]: 3.1 | mutation enrichment score [7]: 5.9

HHTSKIQEFADLTQVETFGFWGEALSSLCALSDVTISTCHA [R107W R107W]
mutation enrichment score ([2]; number of wild-type / mutant comparisons summed (bounds the score): 12, paper call: enhanced): 10

GENDHFDTYADALWWGLITLITIGYGDKYPQTWNGRLLAAT [T276I T276I]
mutation enrichment score ([1]; paper call: no_effect): 0 | mutation enrichment score [8, 21]: -1 | mutation enrichment score [9]: 0

LDVKTRLEQEIATYRRLLEGKDAHLSSSQFSSGSQSSRDVT [E422K E422K]
mutation enrichment score ([1]; paper call: no_effect): 0

RDLLVGAAKHGVSRTDYHILSDPELSFLDAHKNFAQNRGAG [N2118S N2118S]
mutation enrichment score ([1]; paper call: no_effect): -4.9

QQNQEYKILLDVKTRLEQEITTYRRLLEGEDAHLSSSQFSS [A413T A413T]
mutation enrichment score ([1]; paper call: no_effect): 2

NDHFDTYADALWWGLITLTTNGYGDKYPQTWNGRLLAATFT [I278N I278N]
mutation enrichment score ([1]; paper call: no_effect): 0 | mutation enrichment score [8, 22]: -1 | mutation enrichment score [10]: 3

GGGPTIETLELQSERSAVAWLWFQNRRAKWRKMEKLNGKES [V350L V350L]
mutation enrichment score [4, 19]: -5.7

TIPMPAGYFMPIFVYGAAIGSLFGETLSFIFPEGIVAGGIT [R438S R438S]
mutation enrichment score [2, 19]: 5

AEKNPVGLARNEPDPLEKPNWPDTSFIWFLNPLKSARYFLW [R1939W R1939W]
mutation enrichment score [2, 19]: 2

SHCDTFNNQPLCSENFLIAAMEAWGFQDPDTQ [V548M V548M]
mutation enrichment score [2, 20]: -2.8

DEYQELLDIKLALDMEIHAYHKLLEGEEERLRLSPSPTSQR [R377H R377H]
mutation enrichment score ([1]; paper call: enhanced): 6

DEYQELLDIKLALDMEIHAYLKLLEGEEERLRLSPSPTSQR [R377L R377L]
mutation enrichment score ([1]; paper call: no_effect): 1

MWEIYSLGKMPYERFTNSETDEHIAQGLRLYRPHLASEKVY [A607D A607D]
mutation enrichment score ([1]; paper call: enhanced): 6

AVLSYLKFFNCQKHSPFSLSCWFWLTLTGVACSCAVGIKYM [W186C W186C]
mutation enrichment score [2, 23]: 6 | mutation enrichment score [11, 21]: 1

EDRYEEEIKVLSDKLKEAETWAEFAERSVTKLEKSIDDLED [R238W R238W]
mutation enrichment score [2, 20]: 4

QGTTSRAGHLAGPEPAPPPPLPPREPFAPSLGSAFHLPDAP [P224L P224L]
mutation enrichment score [12]: -2 | mutation enrichment score [13]: 5 | mutation enrichment score [14]: 6 | mutation enrichment score [15]: 6 | mutation enrichment score [16]: -3.2 | mutation enrichment score [17]: 5.9

KLEDQLVQQEAAQQQQALASCQQWVADGPGILNEPGEVDSE [W1047C W1047C]
mutation enrichment score ([4]; number of wild-type / mutant comparisons summed (bounds the score): 18, paper call: diminished): -14

SESRISEWTFQPFTNHSVDGQQRGASPRLWDIKVQGPPMFQ [P118Q P118Q]
mutation enrichment score [2, 24]: -6

SFQGKESIFGDNMNELQTFVTNRQKDNLNNYVFQGQHPLTL [A968T A968T]
mutation enrichment score [4, 19]: 4

GSLVAGWSGGGPTIETLELQTERSAVAWVWFQNRRAKWRKM [S342T S342T]
mutation enrichment score [4, 19]: 5.1

PQEKQVHKSILPNSLGVSERWQRLTFPAVSVKVNGHDQGQN [L785W L785W]
mutation enrichment score [2, 23]: 6

LGKMPYERFTNSETAEHIAQDLRLYRPHLASEKVYTIMYSC [G613D G613D]
mutation enrichment score ([1]; paper call: enhanced): 6

SLLCNLIGFVYPAYASIKAIKSPSKDDDTVWLTYWVVYALF [E75K E75K]
mutation enrichment score [4, 19]: -3.1

DLIAKVQADEQFGIWLDSSSLEQTVPYLWSEETPATPIGQA [P3966L P3966L]
mutation enrichment score [4, 20]: -5

DLIAKVQADEQFGIWLDSSSREQTVPYLWSEETPATPIGQA [P3966R P3966R]
mutation enrichment score [4, 20]: -3.7

ADWLSHYWMPKWINATDPSACTLTHYKSAVKA [R550C R550C]
mutation enrichment score [2, 23]: 6

RERTPCAETPAEPVDWAFAQHELLEKQGIDMKQEMEQRLQE [R624H R624H]
mutation enrichment score ([2]; number of wild-type / mutant comparisons summed (bounds the score): 18, paper call: enhanced): 5.9

AFGVLMWEIYSLGKMPYERFINSETAEHIAQGLRLYRPHLA [T602I T602I]
mutation enrichment score ([1]; paper call: enhanced): 6

NRSNCALFSTNLDWLVSKLDWLEASSGILEVLYCVLIESPE [R552W R552W]
mutation enrichment score [2, 20]: 4 | mutation enrichment score [11, 22]: 2.3 | mutation enrichment score [18]: -2

ATGRFPYPKWNSVFDQLTQVEKGDPPQLSNSEEREFSPSFI [V321E V321E]
mutation enrichment score [2, 24]: -6 | mutation enrichment score [10]: -5

QLITVREEAWKTRGRGAANDWTQFTVAGRMVKKGLASPTAI [S1209W S1209W]
mutation enrichment score [4, 23]: 6

HDRDLLVGAAKHGVSRTDYHNLNDPELSFLDAHKNFAQNRG [I2116N I2116N]
mutation enrichment score ([1]; paper call: diminished): -6

QGADAHSKELNKLPLPSKSVGWTHFGGSPPSDEIRTLRDQL [D675G D675G]
mutation enrichment score ([4]; number of wild-type / mutant comparisons summed (bounds the score): 12, paper call: diminished): -7

VRSDVWSLGITLYELATGRFRYPKWNSVFDQLTQVVKGDPP [P306R P306R]
mutation enrichment score [2, 24]: -6 | mutation enrichment score [10]: -5
